Measured values reported in the supplement of paper PMC11417369.
± gives the standard deviation of the averaged measurements. This is one part of the list.

These sequences were tested on PfAP2-G AP2 domain (GST-tagged) (assay: gcPBM binding intensity (ln(normalized median fluorescence intensity)); higher = stronger DNA binding).
How it was run: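 In this array assay, P. falciparum DNA-binding domains with a GST tag, expressed in E. coli, were applied for 1 h to primer-extended double-stranded 36-bp intergenic genomic probes and negative controls on an Agilent 4 × 180k array. Bound protein was visualised with Alexa488 anti-GST antibody at 488 nm. Binding intensity is the highest Masliner-normalised natural-log median intensity across replicate spots of either probe orientation.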

| Sequence | gcPBM binding intensity (ln) |
| --- | --- |
| ATATTCTTTTTATGTGGTACTAATTTTTTTTTTTTA [XGTACX_site3791] | 11.2 ± 0.73 |
| TTTTTAAAACATCACTGTACCCGTTATGGTGAACAT [XGTACX_site3483] | 11.7 ± 1.2 |
| AAACATATAAACATATGTACATATAAACATATATAC [XGTACX_site5026] | 11 ± 0.46 |
| CATGTATTTTATATTACACACTAATATTATAGATAT [CACACA_site6819] | 10.01 ± 0.021 |
| TTTTTTTTTTTGTTTAAACACACGAGCTTTCTTCTT [CACACA_site4085] | 9.75 ± 0.042 |
| TAAAAATTTTAATAAACACACAATGAGATATTGAAT [CACACA_site5704] | 9.66 ± 0.36 |
| AGCAAATCAGATAGTAGTACATTTAAATTAGACTTT [XGTACX_site4172] | 11.3 ± 0.81 |
| AGCATATTATCATATTGTACATATTATAATATATAT [XGTACX_site3907] | 10.9 ± 0.69 |
| ATATGTTTTGTTTACGTGCACTGCTTTGTTTATATA [GTGCAC_site9622] | 10.4 ± 0.17 |
| ATTTCTCAATCTTAATGTACAAAAAAAAGGAAAAAG [XGTACX_site1210] | 10.9 ± 0.54 |
| CAAAATAAAAATAACACACACATTTATATATATACA [CACACA_site1190] | 9.86 ± 0.19 |
| ATGAAATATCGGAACGCACACATAAATATATTTATA [CACACA_site2670] | 10.2 ± 0.23 |
| TAGCTTATTAATATCATACACACATAGATATATTTA [CACACA_site3105] | 9.63 ± 0.25 |
| CAATTTGGGGTGTACACACACCTTATTTAAATTAAA [CACACA_site6663] | 11.6 ± 0.98 |
| TTGAACTCTCTTACGCGTACGTGTTATTATGAAAAT [XGTACX_site6265] | 11.3 ± 0.7 |
| AACACAGATAAATTAACACACACACCCATATATATA [CACACA_site9310] | 9.99 ± 0.26 |
| CACATATAGTTATATGCACACATCTTACACATCTAT [CACACA_site5937] | 10.2 ± 0.11 |
| TATATATATATATGTGCATGTAATGATTCAGCATCT [TGCATGCA_site803] | 9.96 ± 0.2 |
| TTTTATAAATTATAATTCTATTATCTGTTCTTTTTA [TGCATGCA_negctrl_site487] | 9.52 ± 0.3 |
| CATACATACATACATACACACATACAGATATATATA [CACACA_site4890] | 10.6 ± 0.38 |
| TCCTTATTACTTTTTTAAGTCGTAATGAAAGAAAAA [CACACA_negctrl_site1497] | 10 ± 0.27 |
| ATCTTAACTCTATGCACACATAAAAGTATATAAATA [CACACA_site2256] | 10.2 ± 0.33 |
| TTACATAATTTCTGCTGTACCAATTTTGAGAAGTTG [XGTACX_site4023] | 11.2 ± 0.71 |
| AAAAGGAATATAATCATTCAAAAATATAATATATAT [GTGCAC_negctrl_site551] | 9.48 ± 0.085 |
